According to the supplement of paper PMC12889115:
This is one part of the list. Single values are uncertain, as repeats are few or missing.

What follows are compounds tested on Salmonella enterica serovar Typhimurium SL1344 (assay: bacterial growth OD600 after 18 h in MHB with 0.5 µg/mL polymyxin B; higher = more bacterial growth (less inhibition)). Conditions: 25 µM; polymyxin B 0.5 µg/mL; system: broth.
Experimental: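 Secondary screen of the 553 primary hits at 25 µM. (i) S. Typhimurium SL1344 grown in Mueller-Hinton broth with 0.5 µg/mL polymyxin B, OD600 read after 18 h. (ii) SAFIRE assay: RAW 264.7 macrophages infected with S. Typhimurium sifB::gfp (MOI 30); compound added 2 h post-infection; cells fixed at 18 h; GFP-positive pixel fraction per macrophage imaged by confocal microscopy and expressed as % of DMSO control.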
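Further: polymyxin B level opens the outer membrane while sparing the inner membrane, with novobiocin wells as reference growth inhibitor.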

SMILES	bacterial growth OD600
CCOC(=O)C1(Cc2ccccc2C)CCCN(S(=O)(=O)c2cccs2)C1 (stereo not drawn)	-0.002
O=C(CC1(c2ccccc2F)CC(=O)N(C2CCCC2)C1=O)N(CC1CCC1)CC1CCCO1 (stereo not drawn)	-0.003
O=C(c1cccc(Cl)c1)C1CCCN(C(=O)Nc2ccc3c(c2)OCO3)C1 (stereo not drawn)	0.316
CCCN(CC1CC1)C(=O)CC1(c2ccc(-c3ccccc3)cc2)CC(=O)N(C2CC2)C1=O (stereo not drawn)	-0.01
CCC1CN(Cc2ccc3ncccc3c2)Cc2cc(OC)ccc2O1 (stereo not drawn)	0.011
CCCCN(Cc1ccccc1)C(=O)CCc1nnc(C(OC)c2ccccc2)o1 (stereo not drawn)	0.072
CCOC(=O)C1(CCCc2ccccc2)CCN(C(=O)C2CC=CCC2)CC1 (stereo not drawn)	-0.003
OC(Cc1ccccc1)c1ccc2c(c1)CN(Cc1cc(F)cc(F)c1)CCO2 (stereo not drawn)	-0.008
